Assay results as given in publication PMC4336329 (PLoS ONE, 2015).
Out of some 310,000 compounds screened, about 14,000 (4.5%) showed an effect of 50% or more. Effects have a minus sign here. Some of the results follow.

These compounds were tested against human ether-à-go-go-related gene (hERG) potassium channel (human, UniProt Q12809) (assay: primary screen, population patch clamp on CHO cells stably expressing hERG).
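Also: peak tail current of the secondary pulse compared with the same well before compound.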

Sequence of human ether-à-go-go-related gene (hERG) potassium channel (Q12809 whole entry, looked up): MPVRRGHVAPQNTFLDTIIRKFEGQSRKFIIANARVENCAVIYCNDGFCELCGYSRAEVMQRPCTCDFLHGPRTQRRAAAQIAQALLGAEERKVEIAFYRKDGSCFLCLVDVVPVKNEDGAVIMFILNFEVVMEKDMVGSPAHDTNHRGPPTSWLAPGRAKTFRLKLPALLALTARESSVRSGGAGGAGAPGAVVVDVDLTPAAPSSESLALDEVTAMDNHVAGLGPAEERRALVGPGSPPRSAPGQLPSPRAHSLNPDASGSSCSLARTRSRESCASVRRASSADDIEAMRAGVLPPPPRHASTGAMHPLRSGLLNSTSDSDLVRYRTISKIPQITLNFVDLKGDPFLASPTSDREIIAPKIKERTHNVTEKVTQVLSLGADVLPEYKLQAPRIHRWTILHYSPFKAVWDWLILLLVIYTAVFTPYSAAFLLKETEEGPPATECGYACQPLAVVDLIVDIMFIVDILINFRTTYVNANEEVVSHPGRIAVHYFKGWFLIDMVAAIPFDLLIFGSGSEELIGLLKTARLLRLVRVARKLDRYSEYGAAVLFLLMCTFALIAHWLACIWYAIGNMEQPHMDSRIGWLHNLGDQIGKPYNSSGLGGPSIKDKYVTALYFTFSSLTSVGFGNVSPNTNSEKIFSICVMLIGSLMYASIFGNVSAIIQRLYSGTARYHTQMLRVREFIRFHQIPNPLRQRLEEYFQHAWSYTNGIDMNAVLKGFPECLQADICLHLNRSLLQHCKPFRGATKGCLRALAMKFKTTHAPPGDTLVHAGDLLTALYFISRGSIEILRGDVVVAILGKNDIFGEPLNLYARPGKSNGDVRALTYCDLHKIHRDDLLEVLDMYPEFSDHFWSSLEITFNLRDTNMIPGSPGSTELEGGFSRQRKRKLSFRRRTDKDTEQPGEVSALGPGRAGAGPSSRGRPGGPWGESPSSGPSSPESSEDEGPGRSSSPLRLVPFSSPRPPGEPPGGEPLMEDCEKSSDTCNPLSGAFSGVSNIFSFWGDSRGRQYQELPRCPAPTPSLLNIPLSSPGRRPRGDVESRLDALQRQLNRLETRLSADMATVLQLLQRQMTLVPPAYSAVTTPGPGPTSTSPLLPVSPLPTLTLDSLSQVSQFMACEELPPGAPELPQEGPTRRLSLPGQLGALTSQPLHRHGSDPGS

Row | SMILES | hERG current change (%, negative = inhibition) at 10uM
1 | CC(=O)c1c(C)[nH]c(C(=O)Nc2nc(-c3ccc(-c4ccccc4)cc3)cs2)c1C | 19.3%
2 | O=C(NCc1ccncc1)c1cccc(S(=O)(=O)N2CCc3ccccc32)c1 | -31.3%
3 | Cc1c(-n2c(SCC(=O)O)nnc2-c2ccccc2Cl)c(=O)n(-c2ccccc2)n1C | 18.7%
4 | COc1ccc(CN2CCN(Cc3cccc(OC)c3)C(CCO)C2)cc1 (centres unmarked) | -45.8%
5 | CSc1cccc(NC(=O)C2CCN(S(=O)(=O)c3cnc[nH]3)CC2)c1 | 9.39%
6 | NC(=O)c1nsc(C(=O)N(CC(=O)NC2CCCCC2)Cc2ccc(F)cc2)c1N | -8.15%
7 | CCCN(CC1CC1)C(=O)Nc1ccccc1C | 1.34%
8 | CCCCNC(=O)COC(=O)c1cc2c(C)nn(-c3ccccc3)c2s1 | 17.8%
9 | CCOc1ccc(NC(=O)CN2CCc3ccccc3C2)cc1 | -6.01%
10 | CCN(c1ccccc1)S(=O)(=O)c1ccc(C(=O)Nc2ncccc2C)cc1 | -3.17%
11 | C#CCOCCOCCOCCNc1nc(N2CCN(C(=O)C([C@@H](C)CC)n3cc(C(N)COC(=O)C(F)(F)F)nn3)CC2)nc(N2CCN(C(=O)[C@H](CCCCN)n3cc(C(N)[C@H](C)CC)nn3)CC2)n1.Cl (some centres unmarked) | 5.88%
12 | CCc1ccc(S(=O)(=O)Nc2nnc(N)s2)cc1 | 11.1%
13 | Cc1n[nH]c(C)c1N=Nc1ccc(Br)cc1 | 44.7%
14 | CC(C)(C)NC(=O)Cn1nnc(-c2ccccc2NC(=O)c2cnccn2)n1 | 4.48%
15 | O=C(COc1cccc(Cl)c1)NCc1ccccc1 | 18.9%
16 | COc1ccc(N2C(=O)CC(N3CCN(c4ccc(S(=O)(=O)N5CCCC5)cc4)CC3)C2=O)cc1 (centres unmarked) | -10.4%
17 | CCOc1ccccc1NC(=O)c1ccc2c(c1)C(=O)N(C(C)(C)C)C2=O | 24.6%
18 | COc1ccc(-c2nc3cc([N+](=O)[O-])ccc3o2)cc1OC | 10.3%
19 | COCCNC(=O)c1noc2c1CCc1cc(OC)ccc1-2 | -6.83%
20 | CCOc1cccc(C(=O)Nc2nc(-c3ccc(S(=O)(=O)N4CCOCC4)cc3)cs2)c1 | -0.459%
21 | CCCn1c(=O)c(C(=O)NCc2ccccc2)c(O)c2ccccc21 | 7.64%
22 | CC12CC3CC(C)(C1)CC(C(=O)Nc1nn[nH]n1)(C3)C2 | 18.4%

Row | SMILES | hERG current change (%, negative = inhibition) at 10uM
23 | CC(C)Oc1ccc(CC(=O)NNC(=S)Nc2ccc(Br)cc2)cc1 | -1.09%
24 | Cc1cc(C)n2cc(CSCc3ccco3)nc2n1 | -13.9%
25 | COc1ccc(NC(=O)c2cc(-c3ccco3)on2)cc1OC | 13.9%
26 | O=C(Nc1ccc(-c2nc3ccccc3o2)c(O)c1)c1cc(-n2cnnc2)ccc1Cl | 1.02%
27 | Cc1cc(C)n(Cc2ccccc2Cl)n1 | 0.411%
28 | O=C(CNC(=O)c1ccccc1F)OCCCOC(=O)CNC(=O)c1ccccc1F | 1.56%
29 | Cc1cc(Cl)nc2ccc(Cc3ccc4nc(Cl)cc(C)c4c3)cc12 | 18.4%
30 | Cc1ccc(CSCC(=O)N(C)CC(=O)Nc2ccccc2Cl)cc1 | 15.4%
31 | Cc1cccc2cc(CN(CC3CCCO3)C(=S)NCc3ccco3)c(=O)[nH]c12 (centres unmarked) | 9.55%
32 | O=C(C1CCC1)N1CCN(S(=O)(=O)c2ccc(F)cc2)CC1 | 11.4%
33 | CCCCCC1CCC(C(=O)O)CC1 (centres unmarked) | 5.24%
34 | COc1ccc(N=Cc2sc(O)c3ccccc23)cc1 | 13.7%
35 | O=C1Cc2cc(NS(=O)(=O)c3ccc(Cl)cc3)cc3c2N1CCC3 | -24.6%
36 | CCC(=O)Nc1nc2ccccc2n1Cc1ccccc1 | -6.62%
37 | CNC(=O)N(O)C1N(NC(=O)Nc2cccc3ccccc23)C(=S)SC1(C)C (centres unmarked) | 3.9%
38 | COc1ccc(OC)c(NC(=O)c2ccc(-n3cccn3)nc2)c1 | -19.6%
39 | C1COCCNCCOCCOCCOCCN1 | 0.269%
40 | COc1ccc(C(CNC(=O)c2cc(S(=O)(=O)N3CCCC3)ccc2Cl)N2CCCC2)cc1 (centres unmarked) | -31.6%
41 | Cc1ccc(S(=O)(=O)Nc2cccc(Cl)c2)cc1NC(=O)c1cccnc1 | -12.6%
42 | S=C1NCCOCCOCCOCCNC(=S)NCCOCCOCCOCCN1 | 19%
43 | Cc1cccc(C(=O)N(CCc2ccccc2)Cc2ccccc2)c1[N+](=O)[O-] | 4.17%
44 | CC(C)Cn1cnc2c1c(=O)n(CC(O)c1ccccc1)c(=O)n2CC(C)C (centres unmarked) | -5.63%
